Some of the results follow.

In the assay the target is T1, OsWOX13 (Oryza sativa, UniProt Q5QMM3 1-267).
T1 sequence: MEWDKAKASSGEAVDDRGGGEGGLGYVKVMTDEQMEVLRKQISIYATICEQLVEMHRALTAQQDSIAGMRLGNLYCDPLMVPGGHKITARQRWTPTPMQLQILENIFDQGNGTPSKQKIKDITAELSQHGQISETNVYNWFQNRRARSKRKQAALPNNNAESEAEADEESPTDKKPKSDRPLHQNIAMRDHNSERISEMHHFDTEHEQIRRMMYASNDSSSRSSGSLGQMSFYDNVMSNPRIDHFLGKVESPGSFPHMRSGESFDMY
Briefly: protein-binding microarray (RPBM); PBS, 2% BSA, 51.3 ng/ul salmon testes DNA, 50 uM zinc acetate, 200 nM TF, 25 C, 1 h; high values mean tight binding. The following applies: protein: recombinant; tags: N-terminal polyhistidine and DsRed monomer fusion (pET32a); label: CyDye5-dUTP incorporated in the synthesized complementary strand; 3' TTTTT single-stranded linker to array surface; dsDNA, one strand shown. The method in brief: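 Per-feature fluorescence intensity (arbitrary units), read on an Axon 4000B scanner, is the binding signal. Transcription factors carrying an N-terminal polyhistidine tag and DsRed fusion were expressed in E. coli BL21-CodonPlus and purified on Ni–NTA. A custom Agilent array, made double-stranded by primer extension with Cy5-dUTP and blocked with 2% BSA, was incubated with 200 nM protein in PBS, 2% BSA, salmon testes DNA and 50 µM zinc acetate at 25 °C for 1 h and then washed.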
On to “ATAAATTATTAATAGAGTGTATCGCTGGAGCGTAGAAATTCGGAGTCACCTAGTGCAG”, for which the binding signal was 10800 fluorescence intensity (a.u.).
As for “CGATCAATTATTACACCAATTCAATCGAACACAAACATATCGGAGTCACCTAGTGCAG”, the binding signal was 6840 fluorescence intensity (a.u.).
As to “CTTTGATCAGCTAATGGATGTGATTGACAAGATCAAGAATCGGAGTCACCTAGTGCAG”, the binding signal was 37700 fluorescence intensity (a.u.).
In the case of “AAGAAAAGAAAAGAGATTAATTGATGGGTTCTACGATGACCGGAGTCACCTAGTGCAG” it was 6560 fluorescence intensity (a.u.); in that of “ACATGATTTATGATTTAGTGTATGTGCTTAAAGAATCCTTCGGAGTCACCTAGTGCAG”, 18700 fluorescence intensity (a.u.).
“AATACTGAAATGACTGGAATGAAAGTCTGGTCGGGGATCCCGGAGTCACCTAGTGCAG”: the binding signal is 3530 fluorescence intensity (a.u.).
Consider “GGTTGATTTAATTCTGTATCTTTGATTTGATCTATAGCGTCGGAGTCACCTAGTGCAG”, for which the binding signal was 51600 fluorescence intensity (a.u.).
For the sequence “TTTTCCCAAATTAGTAGCCTAATTTAATTAATTCGGACGTCGGAGTCACCTAGTGCAG”, the binding signal was 19800 fluorescence intensity (a.u.).
In the case of “CAATTAACTGGCAAGCTACATATGCCCCGCAATTAACCTACGGAGTCACCTAGTGCAG” it was 15400 fluorescence intensity (a.u.); in that of “CAAATTTGAATAAATGTAGTGAAAATTTTAGGATTGGGAGCGGAGTCACCTAGTGCAG”, 4660 fluorescence intensity (a.u.).
With “GTACTAAATTTTGTTATTCTTCTCCTCCAAGGGCATATCGCGGAGTCACCTAGTGCAG”, the binding signal was 5010 fluorescence intensity (a.u.).
As to “AAATACTGAATTGATTTATTTGGATCTATTTGTAAAATAACGGAGTCACCTAGTGCAG”, the binding signal was 6140 fluorescence intensity (a.u.).
“TCATGGTGTGATTAGGCCCAAAAGATTCGTCTCGCAATTTCGGAGTCACCTAGTGCAG”: the binding signal was 3560 fluorescence intensity (a.u.).
Regarding “TTAAATTTAAAGCAGTCTGACTTTGATCTGAAACGGAGGGCGGAGTCACCTAGTGCAG”, the binding signal was 14500 fluorescence intensity (a.u.).
“TTATAAATTAAATTTTATGTAATGAAAATAATATCATTGGCGGAGTCACCTAGTGCAG”: the binding signal is 23600 fluorescence intensity (a.u.).
In the case of “CTGCTAGATTGGTAGTGGCAACCGTGTGCTAGTGCAGCATCGGAGTCACCTAGTGCAG” it was 9160 fluorescence intensity (a.u.); in that of “CAACAAATTTAATGGTGCAATCGGGTCATGATTTGGATAACGGAGTCACCTAGTGCAG”, 12700 fluorescence intensity (a.u.); in that of “TTCCAACAAATAAATTAAGATTTGCATTATTAGTTCCCTCCGGAGTCACCTAGTGCAG”, 4120 fluorescence intensity (a.u.).
With “GTGCAAGGATAATTGGTGATTATATTAGTGTATATTTAAGCGGAGTCACCTAGTGCAG”, the binding signal was 18200 fluorescence intensity (a.u.).
Regarding “AATTGATAGAATTTACTTAGTTTTGAACATTGCGTCATACCGGAGTCACCTAGTGCAG”, the binding signal is 22000 fluorescence intensity (a.u.).
Take “AATTTAAAATAGTTAATAATCAATTAATCACATTAATCCACGGAGTCACCTAGTGCAG”: the binding signal is 15000 fluorescence intensity (a.u.).
Turning to “GTCTATATTTATTGACAGATTGATAGTATAAAGCTGTAAACGGAGTCACCTAGTGCAG”, the binding signal is 34600 fluorescence intensity (a.u.).
Turning to “GGGCCGTGATTGATTTGCTGGCGTGTGTGATTTTCAGCTGCGGAGTCACCTAGTGCAG”, the binding signal was 62900 fluorescence intensity (a.u.).
Turning to “TCTCTAATTTATTAGAGCACCACGTGTCGGCTTGAGAGCGCGGAGTCACCTAGTGCAG”, the binding signal is 24600 fluorescence intensity (a.u.).
In the case of “GTAGAATTGATAGTCTTCTACCATAATGCAAATTCTTGTACGGAGTCACCTAGTGCAG” it was 8170 fluorescence intensity (a.u.); in that of “TATATTAACAAGTAATTTCTGTTTTGCATTCTTTTGTTCACGGAGTCACCTAGTGCAG”, 6020 fluorescence intensity (a.u.).
In the case of “AATAACTAATTACATGGATTGCGACTACTTTGCGAGACGACGGAGTCACCTAGTGCAG”, the binding signal is 15200 fluorescence intensity (a.u.).
Take “CTATGATTTGACAATATGGTGCTACAGTAAATATTCGCTACGGAGTCACCTAGTGCAG”: the binding signal is 43700 fluorescence intensity (a.u.).
For “GATGGGAATTTAATTGTAAACAGAAAAGAAAATTGGTGTTCGGAGTCACCTAGTGCAG”, the binding signal was 10100 fluorescence intensity (a.u.).
As for “ATAATTTCCAAACTGATGTATCTACTTCTCTTGCTCTACTCGGAGTCACCTAGTGCAG”, the figure is 4720 fluorescence intensity (a.u.); as for “GCTAATTCATTCATATAATATAATCATCATATATGGGCCTCGGAGTCACCTAGTGCAG”, 6740 fluorescence intensity (a.u.); as for “TTCGCCTAAAATACCAATCAAAACTCTAGACACAGACACGCGGAGTCACCTAGTGCAG”, 10700 fluorescence intensity (a.u.).
Turning to “CGTTTAATTTGCAGTCATTTATGAGCTTGTTTACTTCCTACGGAGTCACCTAGTGCAG”, the binding signal is 23200 fluorescence intensity (a.u.).
On to “TACGCCTGATTGGATCCCCACCCCTATCTCCACTGACTGTCGGAGTCACCTAGTGCAG”, for which the binding signal is 34100 fluorescence intensity (a.u.).
As for “ATCCAATTAATCCACGGATACCATGAAATTAAATGCTTGGCGGAGTCACCTAGTGCAG”, the binding signal is 8980 fluorescence intensity (a.u.).
In the case of “CCATAGATAATTTAAGATAACACATAATCTGCCGGGAATTCGGAGTCACCTAGTGCAG”, the binding signal is 12300 fluorescence intensity (a.u.).
As for “CCGTCAATCTCAATCTCCCACTGCCCAACTATTTAAGCAGCGGAGTCACCTAGTGCAG”, the figure is 14600 fluorescence intensity (a.u.).
As for “TCAGATTAGCAATGATTAAGGGATCAACAGTTGAGCGAATCGGAGTCACCTAGTGCAG”, the binding signal is 42700 fluorescence intensity (a.u.).
“ATTATTTGTCTAAATTTAAATTCTATACCGTGACAAATATCGGAGTCACCTAGTGCAG”: the binding signal was 7060 fluorescence intensity (a.u.).
Take “GATTAATTAGGCTCAATAAATTTGTCTCGCGAATTAGTTTCGGAGTCACCTAGTGCAG”: the binding signal was 21900 fluorescence intensity (a.u.).
As for “CACATATGGTGATTGGAAATTTAATTAACCTCTTCCCCTACGGAGTCACCTAGTGCAG”, the binding signal is 46600 fluorescence intensity (a.u.).
As for “CCCAATTAAATTGCACCTTATACGGTGCTACTGCTGTGTCCGGAGTCACCTAGTGCAG”, the figure is 24100 fluorescence intensity (a.u.); as for “TATAACCAATTTAGAATTTAATTAACAAGGTAATTGTTGTCGGAGTCACCTAGTGCAG”, 13400 fluorescence intensity (a.u.); as for “ACGTAATTAGTTTTATAAGTAGTCTATATTTAATACTCTACGGAGTCACCTAGTGCAG”, 12200 fluorescence intensity (a.u.).
For the sequence “ATCTGGCAATAATTTACAATTAATTGATACCTTATTGCCTCGGAGTCACCTAGTGCAG”, the binding signal was 54800 fluorescence intensity (a.u.).
As for “TCAAAATTTCCAATGAAAATTGAAAATTTTCCCTCCGCAACGGAGTCACCTAGTGCAG”, the figure is 7910 fluorescence intensity (a.u.); as for “GACACATCACATACTTTAATTTGGCGATAAAACACATGTGCGGAGTCACCTAGTGCAG”, 3430 fluorescence intensity (a.u.); as for “TGCATGACTGTGGAATTACTCCTGATGAGCATACCATTTCCGGAGTCACCTAGTGCAG”, 8880 fluorescence intensity (a.u.).
For “CTGATTACAAGATATAAGTATCATCAACAGAACAATACACCGGAGTCACCTAGTGCAG”, the binding signal was 3650 fluorescence intensity (a.u.).
As for “GTAATTTTCTTCTGTCTAAATTAAAATATATACAATCATCCGGAGTCACCTAGTGCAG”, the binding signal is 9310 fluorescence intensity (a.u.).
As for “TCCGGGCCCTGTCAATTTAACCGCTGCGATTGTTGAGAAACGGAGTCACCTAGTGCAG”, the binding signal was 5540 fluorescence intensity (a.u.).
In the case of “CTTTCAATCAGGTCTCACTCTCACATTTCAGTTTAGGGGACGGAGTCACCTAGTGCAG” it was 20000 fluorescence intensity (a.u.); in that of “GTATGAATTGACTATAGGTGAATTGGAGTCATTAATGGGCCGGAGTCACCTAGTGCAG”, 12000 fluorescence intensity (a.u.).
As for “GATGCATAATATTTATCAATTAGGATTCAAATTCGGTTGCCGGAGTCACCTAGTGCAG”, the binding signal was 4210 fluorescence intensity (a.u.).
